Experimental data published in PubChem BioAssay AID1159614 (National Center for Advancing Translational Sciences (NCATS), 2016).
Out of some 45,000 compounds screened, about 65 (0.1%) were called active. Calls follow the shape of the dose curve; as a rule, active = well fitted activation curve with a large enough effect; inconclusive = small, poorly fitted or top-dose-only effect; inactive = no such curve, though single readings can be large or run the other way. The list shows a part of the results. Numbered stars: 1 amine (or outer) side, 2 acyl side, 3 side chain; on linkers, the order of the positions; unused ones are H or OH. Bridge positions count the residues as written; N and C are the ends. Square brackets hold non-standard residues; d marks the D form. Peptide text beside a SMILES is read from it. * marks the point of attachment. ξ: configuration not given here. ΔAla(3-NHCONH2) = NC(=O)NC=C(N)C(=O)O; X1 = NC1=NCCC(C(N[*:1])C(=O)[*:2])N1; ξβ3hOrn = NCCCC(N)CC(=O)*; Dap = NC[CH](N)C(=O)O

Each molecule was assayed against Galactocerebrosidase (Homo sapiens) (UniProt P54803) (assay: A Novel Cell-Based Assay to Identify Small Molecules for B -Galactocerebrosidase). Conditions: 145M-Twi-hGALC-G270D cells (Twitcher mouse brain line with human GALC G270D), HMU-beta-Gal fluorescence, 48 h; series mostly up to 57.5 µM; activation: at the top concentration.
Procedure, shortened: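 Mutant human GALC (G270D), stably expressed in a Twitcher mouse brain cell line lacking endogenous GALC, is measured in live-treated cells via 6-hexadecanoylamino-4-methylumbelliferyl-β-galactoside hydrolysis (0.1 mM final, pH 5.2) with fluorescent detection.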
Also: 0% is about no effect; nearly all actives have a fitted effect of over 65% in size.

Sequence of UniProt P54803 (P54803 whole entry, looked up): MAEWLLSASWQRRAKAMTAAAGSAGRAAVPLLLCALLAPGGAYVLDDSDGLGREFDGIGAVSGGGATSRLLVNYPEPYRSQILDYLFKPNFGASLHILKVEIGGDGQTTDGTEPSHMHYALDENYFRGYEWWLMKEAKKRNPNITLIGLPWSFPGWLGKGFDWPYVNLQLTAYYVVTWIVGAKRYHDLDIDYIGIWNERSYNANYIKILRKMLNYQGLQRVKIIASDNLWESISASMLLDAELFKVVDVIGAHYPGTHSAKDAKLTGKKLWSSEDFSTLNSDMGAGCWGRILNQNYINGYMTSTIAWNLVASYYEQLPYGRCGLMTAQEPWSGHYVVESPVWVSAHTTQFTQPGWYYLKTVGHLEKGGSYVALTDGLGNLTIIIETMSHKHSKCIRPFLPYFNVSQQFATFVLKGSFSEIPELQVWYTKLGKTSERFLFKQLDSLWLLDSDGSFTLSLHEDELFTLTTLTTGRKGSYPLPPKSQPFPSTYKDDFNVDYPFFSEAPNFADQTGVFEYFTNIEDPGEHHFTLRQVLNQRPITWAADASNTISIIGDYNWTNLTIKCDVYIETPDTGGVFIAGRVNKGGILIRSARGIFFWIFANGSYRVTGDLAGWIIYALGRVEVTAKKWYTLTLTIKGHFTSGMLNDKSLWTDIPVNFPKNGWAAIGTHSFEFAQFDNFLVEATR

activation, inactive:
Cc1c(Cl)cccc1NC(=O)N1CCOc2ccccc21 -20.9%
CCOc1ccc(CNC(=O)C2CCN(C(=O)N3CC(CC)Oc4ccccc43)CC2)cc1 (configuration not stated) 2.95%
CCOc1ccccc1NC(=O)C(=O)NCCc1sc2nc(-c3ccc(OC)cc3)nn2c1C -12.3%
CCOc1ccc(CNC(=O)c2ccccc2NC(=O)c2nsc3ccccc23)cc1 -23.9%
Cc1ccc(NC(=O)NCCOCCn2c(=O)oc3ccccc32)cc1C -13.4%
Cc1c(-c2ccc(Cl)cc2)c(=O)oc2c(CN3CCN(CCO)CC3)c(O)ccc12 -2.94%
CCOc1ccc(CCNC(=O)c2cc3c(=O)n(C)c4ccccc4c3n2C)cc1OCC -4.66%
COc1ccc(S(=O)(=O)N(CC(=O)Nc2cc(C)ccc2OC)Cc2ccccc2)cc1 -7.3%
CCOc1ccccc1NS(=O)(=O)c1ccc2[nH]c3c(c2c1)CCCCC3 12.4%
COC(=O)c1ccc(NC(=O)CN2CCN(S(=O)(=O)c3ccc(Br)cc3)CC2)cc1 -9.82%
Cc1ccc(Cn2c(=O)n(-c3ccc(C)cc3)c(=O)c3c2c2cc(C)ccc2n3C)cc1 -14.7%
CCOc1cc(C2c3c(oc4cc(C)cc(C)c4c3=O)C(=O)N2CCO)ccc1O (configuration not stated) -13.8%
N#C/C(=C\c1cccc(F)c1)c1nc(-c2cc3c(ccc4ccccc43)oc2=O)cs1 -10.6%
Cc1ccc(NC(=O)Nc2ccc3nc(N4CCN(C)CC4)cc(C)c3c2)cc1F -12%
CSc1cccc(NC(=O)C2CCCN(C(=O)c3cnn(-c4ccc(F)cc4)c3-n3cccc3)C2)c1 (configuration not stated) -5.48%
CCCN(CCC)CCCNC(=O)C1CCN(c2nc3ccc(CC)cc3s2)CC1 -16%
O=C(CSc1cn(CC(=O)N2CCCCC2)c2ccccc12)NCc1ccc(F)cc1 2.93%
COc1ccc(N2CCN(S(=O)(=O)CCNC(=O)c3cc(=O)c4ccccc4o3)CC2)cc1 -17.5%
CN(C)c1oc(-c2ccc(COc3ccccc3)o2)nc1C#N -20.4%
COc1cc(NC(=O)Cn2ccn(-c3cc(C)cc(C)c3)c(=O)c2=O)cc(OC)c1 -11.2%
Cc1cc(C)cc(NC(=O)CSc2nc(=O)[nH]c3c2CCC3)c1 -5.77%
CC(C)CN(CCNC(=O)c1cn(C)c2ccc(S(=O)(=O)N3CCCCCC3)cc2c1=O)CC(C)C -13.9%
CC(C)(C)c1ccc(Oc2nc3ccccn3c(=O)c2/C=C(\C#N)c2nc3ccccc3s2)cc1 -18.1%
CCc1ccc(NC(=O)CC2C(=O)N(c3ccc(C)cc3)C(=O)N2C2CCCC2)cc1 (configuration not stated) -34.2%
COc1ccc2c(c1)CCc1sc(NC(=O)c3ccc(Br)cc3)nc1-2 -2.83%
CS(=O)(=O)c1cccc(-c2nnc(NC(=O)c3ccc4c(c3)OCCO4)o2)c1 -10.2%
Cc1ccc(NC(=O)C(Cc2ccccc2)NS(=O)(=O)c2ccc3c(c2)CCC(=O)N3)cc1 (configuration not stated) -8.42%
Cc1cc(C)cc(NC(=O)CSc2nc3ncccc3[nH]2)c1 -10.3%
Cc1ccc(NC(=O)C(=O)NCC(c2ccc3c(c2)OCO3)N2CCN(C)CC2)c(C)c1 (configuration not stated) -10.1%
CC(=O)Nc1cccc(Nc2nc3ccccc3n3c(C)nnc23)c1 -11.5%
CCOC(=O)N1CCC(NC(=O)c2cnn(-c3ccc(C)cc3C)c2C2CCN(C(=O)OC(C)(C)C)CC2)CC1 -7.35%
CCc1nn(CCCC(=O)NCc2ccc(C)cc2)c(=O)c2cc3occc3n12 -5.8%
CC(=O)c1nn(-c2ccc(OC(F)(F)F)cc2)nc1Nc1ccccc1 -9.99%
CCCN(CCC)CCCNC(=O)Cn1ncc2c3ccccc3n(Cc3ccccc3F)c2c1=O -7.13%
CCOc1ccccc1N(C)C(=O)Cn1nc(Cc2ccncc2)c2ccccc2c1=O 5.7%
O=C(CN1CCCN(Cc2ccc(F)cc2)S1(=O)=O)Nc1ccc2c(c1)OCCO2 -8.87%
CCOc1ccc(-c2cc(NC(=O)Nc3ccc(Cl)cc3)c(C(=O)OC)s2)cc1 -15.3%
CCCSc1ncc(Cl)c(C(=O)N(Cc2cccc(Cl)c2)C2CCS(=O)(=O)C2)n1 (configuration not stated) -9.34%
COc1ccc(OC)c(NC(=O)c2cnc(N3CCCCC3)c3ccccc23)c1 -10.6%
CCOC(=O)c1c(NC(=O)CCCOc2ccc(C(C)(C)C)cc2)sc2c1CCCC2 -12.8%
COc1ccccc1C(=O)OCc1cc(=O)n2nc(-c3cccs3)sc2n1 -12.1%
COC(=O)c1ccc(NS(=O)(=O)c2ccc3[nH]c4c(c3c2)CCCC4)cc1 -45.5%
CCC(=O)N1CCc2cc(S(=O)(=O)NCCC(=O)NCc3ccc(C)cc3)ccc21 -11.5%
Cc1cccc(C(c2sc3nc(-c4ccco4)nn3c2O)N2CCN(c3ccccc3F)CC2)c1 (configuration not stated) 4.75%
CCOC(=O)C1CCCN(S(=O)(=O)c2cc(Br)cc3c2N(C(C)=O)CC3)C1 (configuration not stated) 2.03%
CN(C)c1ccc(-c2nc(-c3cccs3)c(-c3cccs3)[nH]2)cc1 -9.71%
CN1CCN(CCCN2c3ccccc3Sc3ccc(S(=O)(=O)N(C)C)cc32)CC1 -16.9%
COc1cccc(CNC(=O)CCCn2ncn3c(cc4occc43)c2=O)c1 5.76%
CCCn1c(SCC(O)c2ccccc2)nc2ccccc21 (configuration not stated) -9.03%
Cc1nn(-c2ccccc2)c2sc(C(=O)Nc3ccc(Br)cc3)cc12 -13.9%
O=C1COc2ccc(-c3cc(-c4ccccc4)c4c(n3)-c3ccccc3OC4)cc2N1 -17.3%
COc1ccc(-c2cc3c(=O)n(CC(=O)Nc4cc(F)ccc4F)ccn3n2)cc1OC -13.1%
CCc1ccc(NC(=O)[C@H](CSCc2ccccc2)N2Cc3ccccc3C2=O)cc1 -4.96%
O=C(NCCc1ccc(Cl)cc1)c1ccc2c(c1)N(Cc1ccc(F)cc1)C(=O)CS2 -4.51%
O=C(Oc1ccc(F)cc1)c1nc(SCc2ccc(F)cc2)ncc1Cl -11.9%
COc1ccc(NC(=O)CCS(=O)(=O)c2ccc3c(c2)oc(=O)n3C)cc1OC -18.5%
CCCCN(Cc1cc2ccccc2[nH]c1=O)C(=O)c1cccc(Cl)c1 -1.21%
COC(=O)c1sc(-c2ccccc2)cc1NC(=O)Nc1ccc(Cl)cc1 -16.2%
CC1=C(C(=O)NCc2ccccc2C)C2(CCCCCC2)OC1=O 1.21%
O=c1[nH]c(=O)n([C@H]2CCCO2)cc1F -16.5%
Cc1ccc(-c2noc(-c3ccccc3NC(=O)C3CC(=O)N(c4ccc(C)cc4)C3)n2)cc1 (configuration not stated) -21.8%
Cc1ccc(C(=O)NCC(c2ccco2)S(=O)(=O)c2cccs2)cc1C (configuration not stated) -18%
COc1cc2nc(Nc3cccc(C)c3)nc(N)c2cc1OC -12%
COc1ccc(NC(=O)CCS(=O)(=O)c2ccc3nc(C)sc3c2)cc1Cl -11.5%
Cc1ccc(-n2ncc(C(=O)NCCc3c[nH]c4ccccc34)c2C2CCN(C(=O)OC(C)(C)C)CC2)cc1C -26%
COc1ccc(NC(=O)C(Cc2ccccc2)n2cccc2)cc1OC (configuration not stated) -16.9%
COc1cc(-c2noc(CCC(=O)Nc3cc(C)ccc3C)n2)cc(OC)c1OC -6.81%
Cc1ccccc1Cn1c2ccccc2c2cnn(CC(=O)NCCc3ccccc3)c(=O)c21 -7.32%
CC(NC(=O)CN(c1ccc(Cl)cc1Cl)S(=O)(=O)c1ccccc1)c1ccccc1 (configuration not stated) -16.5%
O=C(Cn1c(-c2cccs2)cc2cc(Cl)ccc21)N1CCN(c2ccccc2F)CC1 -14.7%
CCC(=O)Nc1ccc(CC)cc1-c1nc2ccccc2n(Cc2ccccc2)c1=O -24.4%
COc1ccc(C(=O)c2oc3ccccc3c2NC(=O)COc2cccc(C)c2C)cc1 -24.7%
Cc1ccc(OC(=O)CSc2nnc(-c3cccs3)o2)cc1 -6.98%
CNC(=O)c1c(NC(=O)/C=C/c2ccccc2Cl)sc2c1CCC2 -11.2%
CCn1c(=O)c2sccc2n2c(CCC(=O)N3CCN(c4ccc(C(C)=O)cc4)CC3)nnc12 1.38%
Cc1ccccc1C(=O)N(Cc1nc(-c2ccc(Cl)cc2)no1)C(C)C -11.8%
CCOc1ccccc1NC(=O)Cn1c(=O)n(Cc2ccccc2)c(=O)c2cccnc21 -1.75%
CC(=O)Nc1ccccc1-c1nc2ccccc2n(Cc2cccc(Br)c2)c1=O -19.1%
CCOC(=O)C(C)NC(=O)C1CCN(c2ncnc3c2nc2n3CCCCC2)CC1 (configuration not stated) -9.4%
Cc1cc(C)c(NC(=O)Cn2nnc(-c3ccccc3)n2)c(C)c1 -9.59%
Cc1cc(S(=O)(=O)NCC(c2ccco2)S(=O)(=O)c2ccccc2)ccc1F (configuration not stated) -13.6%
O=C(Cn1ccc2cc(S(=O)(=O)N3CCCCC3)ccc21)NCc1cccc(Cl)c1 2.76%
CC1CCC(NC(=O)c2cc3c(Cl)nc4ccccc4c3s2)CC1 (configuration not stated) -21.1%
CCc1nnc(NC(=O)C(=O)c2cc(C)n(-c3ccccc3)c2C)s1 -7.42%
CC(C)N(Cc1ccccc1)C(=O)Cn1ncc2c([nH]c3ccccc32)c1=O -3.75%
O=C(CN1CCCN(Cc2ccccc2Cl)S1(=O)=O)NCc1ccccc1 -10.3%
Cc1cccn2c(=O)cc(COc3cccc(NC(=O)COc4ccc(F)cc4)c3)nc12 -11.1%
Cc1ccc(NC(=O)N2CCC(c3ccccc3)C2)cc1C (configuration not stated) 1.33%
Cc1ccc(-c2nonc2NC(=O)c2ccc(F)cc2)cc1C -5.4%
Cc1cccc(NC(=O)CSc2c(C)cnc3c2c(=O)n(C)c(=O)n3C)c1C -7.41%
O=S(=O)(NCC(c1ccco1)N1CCOCC1)c1cc(F)ccc1F (configuration not stated) -6.55%
O=C(CSc1nc2c([nH]c3ccccc32)c(=O)n1-c1ccc(Cl)cc1)N1CCOCC1 -23.3%
CCC1CCCCN1CC(=O)Nc1cc(C)c2c(=O)oc3ccccc3c2n1 (configuration not stated) -9.78%
Cc1cc(C)cc(NC(=O)C2CCCN(C(=O)c3cnn(-c4ccccc4)c3-n3cccc3)C2)c1 (configuration not stated) -13.9%
CCCOc1ccc(C(=O)N(Cc2ccc(N(C)C)cc2)CC2CCCO2)cc1 (configuration not stated) -6.35%
NCCCC(N)CC(=O)NCC1NC(=O)C(CO)NC(=O)C(N)CNC(=O)C(C2CCN=C(N)N2)NC(=O)C(=CNC(N)=O)NC1=O (stereo not drawn) (H-[Dap]S[Dap](ξβ3hOrn)[ΔAla(3-NHCONH2)][X1]; lactam 1-C; configuration not given here) -15.9% [at 0.46 µM]

Potency, inactive:
C[C@@H]1CC(=O)NN=C1c1ccc(NN=C(C#N)C#N)cc1
